Assay results from the supplement of paper PMC11417369.
± gives the standard deviation of the averaged measurements. This is one part of the list.

Test system: PfAP2-EXP AP2 domain (GST-tagged)
Assay: gcPBM binding intensity (ln(normalized median fluorescence intensity)); higher = stronger DNA binding
Outline: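 Binding intensity is the highest Masliner-normalised natural-log median intensity over replicate spots in either probe orientation. To obtain it, GST-tagged P. falciparum DNA-binding domains made in E. coli were incubated for 1 h on an Agilent 4 × 180k array of primer-extended double-stranded 36-bp intergenic genomic probes plus negative controls. Detection used Alexa488 anti-GST antibody with scanning at 488 nm.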

“CATTATAAAAAATAAAAAAGAAATAATTGTATATGC [CACACA_negctrl_site478]” and “ATTTTTTACGTATAGTACAAAGTTTTATGATACATA [CACACA_negctrl_site965]” are within error of each other in “gcPBM binding intensity (ln)” value: 8.64 ± 0.49 for the first, 8.45 ± 0.31 for the second.

“ATGAAATATATTATATGTACATATTTATTTTTTATA [XGTACX_site7319]” and “AAATAGTAAATAAGGGGTACAAAAAAAAAAAAAAAA [XGTACX_site8362]” are within error of each other in “gcPBM binding intensity (ln)” value: 8.23 ± 0.18 for the first, 8.24 ± 0.57 for the second.

“AAATGCTAAAAATAGAGTACAGATAACGAAAAGTGT [XGTACX_site8830]” and “AAGGAGAAATAAATATTAAAAAATTTATATATATAT [CACACA_negctrl_site1801]” are within error of each other in “gcPBM binding intensity (ln)” value: 9.29 ± 0.59 for the first, 9.72 ± 0.13 for the second.

Going from “TTCTTTTTTAACAACAAAAAAAAAAAAAAAAAAAAA [TGCATGCA_negctrl_site87]” to “TAATATTGCAAATATAAAAAAAAATAAACCATATAT [XGTACX_negctrl_site458]”, the “gcPBM binding intensity (ln)” value rises from 7.8 ± 0.37 to 8.78 ± 0.49.

First: TTTTTTGCTTTCAACACACATACAATCTATATAATC [CACACA_site4125]
Second: TAAACCTGTAGAGATGCATGCATTGTTAACATGGTG [TGCATGCA_site515]
The “gcPBM binding intensity (ln)” value of the first is lower: 8.65 ± 0.4 for the first, 9.69 ± 0.24 for the second.

“ACATGTGAAGGGAACATAAATTGGGGTTTTATATTG [XGTACX_negctrl_site508]” and “AAATTATAAATAATTTGTACATAAAAATTGGTAAAG [XGTACX_site5197]” are within error of each other in “gcPBM binding intensity (ln)” value: 8.88 ± 0.86 for the first, 8.6 ± 0.24 for the second.

“GAATATAAAAAAGAATGTACTTGAACAGTCCTAAAA [XGTACX_site745]” and “TTTTGTTAGTTTTTTTTCTTATATTACATTTTCACG [CACACA_negctrl_site1466]” are within error of each other in “gcPBM binding intensity (ln)” value: 8.33 ± 0.34 for the first, 8.82 ± 0.42 for the second.

“TTTTTTATATTAAATGAAGAATATACAAAATTTTAA [CACACA_negctrl_site558]” and “ATGTAGTCTCAAGACTGTACAAACAAGTAAATAAAA [XGTACX_site4120]” are within error of each other in “gcPBM binding intensity (ln)” value: 8.27 ± 0.45 for the first, 8.81 ± 0.49 for the second.

“AATAAATATCAATACACACACACAAAAGTGAATAAA [CACACA_site3763]” and “TATACATTTATGTACACACACATATATGTATATTTA [CACACA_site2966]” are within error of each other in “gcPBM binding intensity (ln)” value: 8.54 ± 0.62 for the first, 8.33 ± 0.28 for the second.

ACAATTTTATTTAAAGTGCATGTAAAATTAAAACTT and “AAAGGAAGAAAAAATAGTACATATATATATATATAA [XGTACX_site766]” are within error of each other in “gcPBM binding intensity (ln)” value: 8.91 ± 0.16 for the first, 8.63 ± 0.25 for the second.

Going from “GTTAAGGGTATATATACACACATATGTAATACATGA [CACACA_site5650]” to “TCCATCCACATATATGTACACACATATATATATATA [CACACA_site8970]”, the “gcPBM binding intensity (ln)” value rises from 8.91 ± 0.47 to 10.1 ± 0.4.

“TACTGTGTTTTGGTTGTACACACGCTACATTATATA [CACACA_site8863]” and “TTATAATATTAATGTGCACACAATTAAAATATTATA [CACACA_site2046]” are within error of each other in “gcPBM binding intensity (ln)” value: 9.01 ± 0.36 for the first, 8.74 ± 0.028 for the second.

“TTCTTAAATGTAAATGTATATGTATTAAAAAGAGAA [TGCATGCA_negctrl_site597]” and “ATAGTATACAGACACACACACACACCCATATATATA [CACACA_site1736]” are within error of each other in “gcPBM binding intensity (ln)” value: 8.61 ± 0.44 for the first, 8.71 ± 0.39 for the second.

“AGGATATAAATATTCACACACACATGGAGATATATA [CACACA_site6317]” and “ATACTAAATGAACACACACACATATATATATATAAT [CACACA_site4232]” are within error of each other in “gcPBM binding intensity (ln)” value: 8.71 ± 0.59 for the first, 8.82 ± 0.42 for the second.

Going from “AACAGACATAGAAACACACATACATACATACATACA [CACACA_site2479]” to “TATAACTTTTTTATTACACACCTATGTAATATTATA [CACACA_site944]”, the “gcPBM binding intensity (ln)” value falls from 9.36 ± 0.28 to 8.46 ± 0.29.

“AAATAAATATATAATACACACAAAAATATAAAATGG [CACACA_site5943]” and “ATGTTTTATATTTTTTTTTTGTTTGCTTGTTTCCTC [CACACA_negctrl_site870]” are within error of each other in “gcPBM binding intensity (ln)” value: 8.87 ± 0.35 for the first, 8.73 ± 0.7 for the second.

“AAGGGAAATATTGAAACACACACGAACCCACGTATT [CACACA_site252]” and “TATATTATAATAAGACGTACAAGGATGTTAAAACTT [XGTACX_site5828]” are within error of each other in “gcPBM binding intensity (ln)” value: 8.54 ± 0.65 for the first, 8.68 ± 0.28 for the second.

Going from TTAATTATGGACAGGGTGCACATGAATAATAATACC to “TACATTAACGGATTATTTCTCAATACAACATCATTT [CACACA_negctrl_site981]”, the “gcPBM binding intensity (ln)” value falls from 9.76 ± 0.21 to 8.44 ± 0.64.

“GTTTGTATGTCCAAATGTACATATGATTTTATGAAA [XGTACX_site6595]” and “AAAATTAAAAATTACTGTACGTATTAGAGAATAAAT [XGTACX_site2567]” are within error of each other in “gcPBM binding intensity (ln)” value: 8.72 ± 0.28 for the first, 8.53 ± 0.32 for the second.

“ACCTAATTCAAATACAGTACATATACAATATATATA [XGTACX_site2779]” and “AAAAAATATTGAAGTACACACATTATAAACTTTTTT [CACACA_site5029]” are within error of each other in “gcPBM binding intensity (ln)” value: 8.55 ± 0.25 for the first, 8.41 ± 0.33 for the second.

First: TATATTGTATAAAAATGTACATGCAATAAATTTAGT [XGTACX_site5621]
Second: AAAATATTAATTAATACATGCATATATATATATATA [TGCATGCA_site585]
The “gcPBM binding intensity (ln)” value of the first is lower: 9.37 ± 0.39 for the first, 10.1 ± 0.34 for the second.

“GTATATATCTCAGAGCATAATAGTATAATTCGGTCA [CACACA_negctrl_site876]” and “AATTATTTTAGAAACACACAAATTAGAAAAAACATA [CACACA_site7673]” are within error of each other in “gcPBM binding intensity (ln)” value: 8.46 ± 0.53 for the first, 8.71 ± 0.57 for the second.
